Assay results published in PubChem BioAssay AID624418 (National Center for Advancing Translational Sciences (NCATS), 2012).
About 530 (0.13%) of roughly 410,000 compounds were called active. The shares of active, inactive and inconclusive entries below differ from those in the screen. Calls come from the whole dose curve; as a rule, active = well fitted inhibition curve with a large enough effect; inconclusive = small, poorly fitted or top-dose-only effect, or another doubt; inactive = no such curve, though single readings can be large or run the other way. Where the call is inconclusive, the potency comes from a doubtful curve fit.

Assay: qHTS of GLP-1 Receptor Inverse Agonists: Cytotox Screen
Conditions: HEK293 cAMP-luciferase reporter cells, luminescence, 24 h; activity change, negative = inhibition: at 38.3 µM (top of the series) unless noted
Method in brief: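 Compound-treated cells are incubated 24 hr at 37 deg C under 5% CO2 after a 12 hour attachment period, then luciferase detection reagent is added and luminescence is measured following 12 min at room temperature; lowered signal indicates toxicity.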
% is set by controls: 0 for no effect and ±100 for the full control effect; potency is the fitted concentration of half-maximal effect.

SMILES | Potency | activity change, negative = inhibition
COc1ccc(CNC(=O)CCC2N=C3c4ccccc4N=C(SCC(=O)NCC4CCCO4)N3C2=O)cc1 (stereo unspecified) | inactive | 
Cc1ccc([C@H]2C[C@@H](n3cc(-c4ccc(F)cc4)nn3)[C@H](O)CN2C(=O)C2CCCCC2)cc1 | inactive | 
CCOC(=O)c1cccc(NC(=O)/C=C/c2ccc3c(c2)OCO3)c1 | inconclusive: 12.6 µM [inhibitor, single point] | 
CC(C)NC(=O)N1CCN(S(=O)(=O)c2ccc3c(ccn3C)c2)CC1 | inactive | 
N#C/C(=N/Nc1ccc(OC(F)(F)F)cc1)C(N)=S | inconclusive: 8.91 µM [inhibitor, partial curve] | 
CS(=O)(=O)c1ccc(C(=O)OCC(=O)Nc2cccnc2Cl)cc1[N+](=O)[O-] | inconclusive: 10 µM [inhibitor, single point] | 
Oc1[nH]c2ccccc2c1N=NC(=S)N1CCOCC1 | inconclusive: 1.41 µM [inhibitor, full curve, poor fit] | 
Cc1ccccc1C(=O)Nc1nnc2n1CCS2 | inactive | 
Cc1nc2ccccn2c1C(=O)N/N=C/c1ccc([N+](=O)[O-])o1 | inconclusive: 10 µM [inhibitor, single point] | 
Cn1c(=S)c2[nH]c(SCc3cccnc3)nc2n(C)c1=O | inconclusive: 1.41 µM [inhibitor, full curve, poor fit] | 
Cn1cccc1/C=C1/SC(=O)N(CC(=O)N2CCCC2)C1=O | inconclusive: 11.2 µM [inhibitor, single point] | 
COc1ccccc1N1CCN(CCCN2C(=O)C3CCCCN3C2=O)CC1 (stereo unspecified) | inactive | 
Cc1ccc(C(OCC(O)CNC(C)c2ccccc2)c2ccccc2)cc1 (stereo unspecified) | inconclusive: 22.4 µM [inhibitor, single point] | 
COc1ccc(/C=N/NC(=O)c2nnn(-c3nonc3N)c2C)cc1OC | inconclusive: 0.316 µM [inhibitor, full curve, poor fit] | 
CS(=O)(=O)c1ccc(Cl)c(NC(=O)COc2ccc3c(c2)CCC3)c1 | inconclusive: 17.8 µM [inhibitor, single point] | 
CCOc1ccc(S(=O)(=O)Nc2cccc(C(=O)NCC3(N4CCCCC4)CCCCC3)c2)cc1 | inconclusive: 28.2 µM [inhibitor, single point] | 
CCOc1ccccc1CN1CCCC(C(=O)Nc2cccc(-n3cccn3)c2)C1 (stereo unspecified) | inconclusive: 28.2 µM [inhibitor, single point] | 
COc1ccc(/C=N/Nc2ncnc3sc(C)c(C)c23)cc1 | inconclusive: 3.55 µM [inhibitor, full curve, poor fit] | 
CCOC(=O)c1c(CSC(=N)N)n(-c2ccccc2)c2cc(Br)c(OC(C)=O)cc12 | inconclusive: 28.2 µM [inhibitor, single point] | 
O=C(Nc1ccc2oc(=O)ccc2c1)c1ccc(-c2cccc([N+](=O)[O-])c2)o1 | inconclusive: 28.2 µM [inhibitor, single point] | 
CCOC(=O)C1CCN(C(=O)Nc2ccc3oc(C)nc3c2)CC1 | inconclusive: 10 µM [inhibitor, partial curve, poor fit] | 
CC(C)(C)c1ccc(Cn2c(Cc3ccccc3)nc3ccccc32)cc1 | inconclusive: 20 µM [inhibitor, partial curve, poor fit] | 

SMILES | Potency | activity change, negative = inhibition
CC1=NN(C(=O)c2cc(C)nn2C)C(O)(C(F)(F)F)C1 (stereo unspecified) | inconclusive: 5.62 µM [inhibitor, full curve, poor fit] | 
O=C(c1cc([N+](=O)[O-])ccc1N1CCCCC1)N1CCc2ccccc21 | inconclusive: 3.98 µM [inhibitor, full curve] | 
O=C(NC(=S)Nc1ccccc1N1CCOCC1)c1ccc(Br)cc1 | inconclusive: 28.2 µM [inhibitor, single point] | 
C/C(=N\NC(=O)c1ccc(O)cc1)c1ccc(NC(=O)Cc2ccccc2)cc1 | inconclusive: 31.6 µM [inhibitor, single point] | 
CN1CCN(C2=Cc3ccccc3Sc3cc(F)ccc32)CC1 | inconclusive: 15.8 µM [inhibitor, single point] | 
Cc1ccc(CN(Cc2ccco2)C(=S)Nc2ccccc2C)cc1 | inconclusive: 11.2 µM [inhibitor, single point] | 
S=C(Nc1cccc2ccccc12)NC1CCCCC1 | inconclusive: 20 µM [inhibitor, single point] | 
O=C(NC1CC1)c1cccc(Nc2ccc(-c3ccc4c(c3)OCCO4)nn2)c1 | inconclusive: 28.2 µM [inhibitor, single point] | 
CC(=O)Nc1ccc(NC(=O)c2ccc(NS(=O)(=O)c3cc(C(C)(C)C)cc(C)c3C)cc2)cc1 | inconclusive: 28.2 µM [inhibitor, single point] | 
O=C1NC(=S)SC1=Cc1cccs1 | inconclusive: 14.1 µM [inhibitor, partial curve, poor fit] | 
Oc1ccc(CNc2ccc(F)cc2)c2cccnc12 | inactive | 
Cc1nc([N+](=O)[O-])c(Br)n1CC(=O)c1ccc2ccccc2c1 | inconclusive: 12.6 µM [inhibitor, partial curve, poor fit] | 
C[C@@]12C(=O)OC(=O)[C@]1(C)C1CCC2O1 | inconclusive: 4.47 µM [inhibitor, full curve] | 
Clc1ccc2c(NCCNC3CCCCC3)ccnc2c1 | inconclusive: 3.98 µM [inhibitor, full curve] | 
COc1cc(CNc2ccc3[nH]c(=O)[nH]c3c2)ccc1OCc1ccccc1Cl |  | inconclusive: -35.4% [inhibitor]
O=C(CCN1C(=O)CSC1=O)Nc1ccc(Br)cc1 | inconclusive: 31.6 µM [inhibitor, single point] | 
O=C1C=C(Nc2ccccc2O)c2ccccc2C1=O | inconclusive: 12.6 µM [inhibitor, partial curve, poor fit] | 
CCOC(=O)c1c(-c2ccc(Br)cc2)csc1NC(=O)c1ccc(F)cc1 | inactive | 
Cc1cc2c(N=O)c(NO)ccc2[nH]1 | inconclusive: 10 µM [inhibitor, partial curve, poor fit] | 
CCOC(=O)C(C)Oc1cccc2c(=O)n(CC(=O)NCc3ccccc3)ccc12 (stereo unspecified) | inconclusive: 0.501 µM [inhibitor, full curve, poor fit] | 
COc1ccc(CCN2CCC(Nc3nc4ccccc4n3Cc3ccc(F)cc3)CC2)cc1 | inconclusive: 28.2 µM [inhibitor, single point] | 
COc1ccc(Cl)cc1NC(=O)c1cccc([N+](=O)[O-])c1O | inconclusive: 3.98 µM [inhibitor, full curve] | 

SMILES | Potency | activity change, negative = inhibition
c1ccc(-c2nnc3ccc(N4CCCC4)nn23)cc1 | inconclusive: 0.891 µM [inhibitor, full curve, poor fit] | 
C/C(=N\NC(=S)NC(C)C)c1ccc2c(c1)OCCO2 | active: 4.47 µM | 
C[C@H](CO)N1C[C@H](C)[C@@H](CN(C)Cc2ccc(-c3ccccc3)cc2)Oc2c(NS(=O)(=O)c3cn(C)cn3)cccc2C1=O | inconclusive: 3.16 µM [inhibitor, full curve, poor fit] | 
S=C(NCCSCc1ccc(Cl)cc1)Nc1ccccc1 | inconclusive: 22.4 µM [inhibitor, single point] | 
CC(=O)c1cccc(OCc2cc(C(=O)N3CCC(N4CCCCC4)CC3)no2)c1 | inactive | 
O=C1COc2cc(S(=O)(=O)NCc3ccco3)c(Cl)cc2N1 | inactive | 
O=C(O)CC(NC(=S)NCc1ccccc1)C(=O)O (stereo unspecified) | inconclusive: 11.2 µM [inhibitor, single point] | 
CCOc1ccc(C(=O)CCC(=O)N(CC)CC(=O)NCc2ccc(Cl)cc2)cc1 | inactive | 
CC1CC(C)(C)NC(=S)N1CCCC(=O)N1CCN(c2ccccc2F)CC1 (stereo unspecified) | inconclusive: 14.1 µM [inhibitor, single point] | 
N#Cc1c(-c2ccccc2)c(-c2ccccc2)nn(CC(=O)NNC(=O)Nc2ccc(Cl)c(Cl)c2)c1=O | inconclusive: 10 µM [inhibitor, partial curve, poor fit] | 
N#Cc1c(N)n(CCNC(=O)c2ccccc2)c2nc3ccccc3nc12 | inactive | 
N#CC(=C=[N-])c1nc2ccccc2nc1-[n+]1ccccc1 | inconclusive: 10 µM [inhibitor, partial curve, poor fit] | 
CC(=NNC(=S)N1CCCCCC1)c1cccc2cccnc12 | inconclusive: 1.78 µM [inhibitor, full curve, poor fit] | 
COc1cc(OC)c(OC)cc1/C=C/c1nc2cc3ccccc3cc2c(=O)n1-c1ccc(F)cc1F | inactive | 
COc1ccc(OC)c(S(=O)(=O)NCC(=O)NC2CCCc3ccccc32)c1 (stereo unspecified) | inactive | 
CC1(C)Cc2c(cnn2-c2ccccc2)C(=O)/C1=N\NC(=O)c1ccccc1 | inactive | 
Cc1ccc(C)c(OCCCCn2ccnc2)c1 | inconclusive: 20 µM [inhibitor, single point] | 
COC(=O)c1cn(C(=O)c2ccccc2Cl)c2ccccc12 | inconclusive: 28.2 µM [inhibitor, single point] | 
COc1ccc(-c2ccc(Nc3ccc(S(=O)(=O)N4CCCC4)cc3)nn2)cc1OC | inconclusive: 12.6 µM [inhibitor, single point] | 
CCN(CC)CC#CC(C)(C)OC(C)=O | inconclusive: 0.501 µM [inhibitor, full curve, poor fit] | 
CS(=O)(=O)Nc1cccc(C2=NN(C(=O)c3ccco3)C(c3cccs3)C2)c1 (stereo unspecified) | inconclusive: 28.2 µM [inhibitor, single point] | 
CC(=O)c1c(C)[nH]c(C(=O)CSc2nnc(-c3ccccc3)o2)c1C | inconclusive: 12.6 µM [inhibitor, single point] | 
